Results taken from the supplement of paper PMC8728848.
The list shows a part of the results.

Assays:
Test in all cases: glycan array binding signal (z-score within array); higher = stronger binding
Details in all cases: glycan notation: IUPAC condensed, linker removed
[1] = target: Gal(b1-4)GlcNAc(b1-6)GalNAc
Procedure, shortened: (§1)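 Columns mapping to the same glycan were averaged after glycan names were converted to IUPAC-condensed notation. The data come from 3228 arrays in the Consortium for Functional Glycomics database, limited to those with an available protein sequence. Binding is reported as a within-array Z-score averaged across arrays of one protein sequence and across linkers.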

[2] = target: Gal(b1-4)GlcNAc(b1-6)[Gal(b1-3)]GalNAc
Procedure, shortened: as §1

[3] = target: Gal(b1-4)GlcNAc(b1-6)[Gal(b1-4)GlcNAc(b1-3)]GalNAc
Procedure, shortened: as §1

Gal(b1-4)GlcNAc6P = target: Gal(b1-4)GlcNAc6P
Procedure, shortened: as §1

Gal(b1-6)Gal = target: Gal(b1-6)Gal
Procedure, shortened: as §1

Gal3S(b1-3)GalNAc = target: Gal3S(b1-3)GalNAc
Procedure, shortened: as §1

Gal3S(b1-3)GlcNAc = target: Gal3S(b1-3)GlcNAc
Procedure, shortened: as §1

[4] = target: Gal3S(b1-3)[Fuc(a1-4)]GlcNAc
Procedure, shortened: as §1

Gal3S(b1-4)Glc = target: Gal3S(b1-4)Glc
Procedure, shortened: as §1

Gal3S(b1-4)Glc6S = target: Gal3S(b1-4)Glc6S
Procedure, shortened: as §1

Gal3S(b1-4)GlcNAc = target: Gal3S(b1-4)GlcNAc
Procedure, shortened: as §1

[5] = target: Gal3S(b1-4)[Fuc(a1-3)]Glc6S
Procedure, shortened: as §1

[6] = target: Gal3S(b1-4)[Fuc(a1-3)]GlcNAc
Procedure, shortened: as §1

[7] = target: Gal3S(b1-4)[Fuc(a1-3)]GlcNAc6S
Procedure, shortened: as §1

Gal3S4S(b1-4)GlcNAc = target: Gal3S4S(b1-4)GlcNAc
Procedure, shortened: as §1

Gal3S6S(b1-4)GlcNAc = target: Gal3S6S(b1-4)GlcNAc
Procedure, shortened: as §1

Gal3S6S(b1-4)GlcNAc6S = target: Gal3S6S(b1-4)GlcNAc6S
Procedure, shortened: as §1

Gal4S(b1-4)GlcNAc = target: Gal4S(b1-4)GlcNAc
Procedure, shortened: as §1

Gal4S6S(b1-4)GlcNAc = target: Gal4S6S(b1-4)GlcNAc
Procedure, shortened: as §1

Gal6P(b1-4)GlcNAc = target: Gal6P(b1-4)GlcNAc
Procedure, shortened: as §1

Gal6S(b1-3)GlcNAc = target: Gal6S(b1-3)GlcNAc
Procedure, shortened: as §1

Gal6S(b1-3)GlcNAc6S = target: Gal6S(b1-3)GlcNAc6S
Procedure, shortened: as §1

Gal6S(b1-4)Glc = target: Gal6S(b1-4)Glc
Procedure, shortened: as §1

Gal6S(b1-4)Glc6S = target: Gal6S(b1-4)Glc6S
Procedure, shortened: as §1

Gal6S(b1-4)GlcNAc = target: Gal6S(b1-4)GlcNAc
Procedure, shortened: as §1

Gal6S(b1-4)GlcNAc6S = target: Gal6S(b1-4)GlcNAc6S
Procedure, shortened: as §1

GalNAc(a1-3)Gal = target: GalNAc(a1-3)Gal
Procedure, shortened: as §1

GalNAc(a1-3)GalNAc = target: GalNAc(a1-3)GalNAc
Procedure, shortened: as §1

[8] = target: GalNAc(a1-3)GalNAc(b1-3)Gal(a1-4)Gal(b1-4)Glc
Procedure, shortened: as §1

[9] = target: GalNAc(a1-3)GalNAc(b1-3)Gal(a1-4)Gal(b1-4)GlcNAc
Procedure, shortened: as §1

GalNAc(b1-3)Gal = target: GalNAc(b1-3)Gal
Procedure, shortened: as §1

[10] = target: GalNAc(b1-3)Gal(a1-4)Gal(b1-4)GlcNAc
Procedure, shortened: as §1

[11] = target: GalNAc(b1-3)Gal(a1-4)Gal(b1-4)GlcNAc(b1-3)Gal(b1-4)Glc
Procedure, shortened: as §1

[12] = target: GalNAc(b1-3)Gal(a1-6)Gal(b1-4)Glc
Procedure, shortened: as §1

GalNAc(b1-3)GalNAc = target: GalNAc(b1-3)GalNAc
Procedure, shortened: as §1

GalNAc(b1-3)GlcNAc = target: GalNAc(b1-3)GlcNAc
Procedure, shortened: as §1

GalNAc(b1-4)Gal(b1-4)Glc = target: GalNAc(b1-4)Gal(b1-4)Glc
Procedure, shortened: as §1

GalNAc(b1-4)GlcNAc = target: GalNAc(b1-4)GlcNAc
Procedure, shortened: as §1

B1: FimD (Bordetella pertussis) (protein)
chain: MPARVISFCGAALAVWAGLAVQPAMAVDPPVDCGRALGLHFWSSASLISDQTPDGTLIGKPVVGRSLLSKSCKVPDDIKEDLSDNHDGEPVDIVLELGSNYKIRPQSYGHPGIVVDLPFGSTEETGIAIYIDFGSSPMQKVGERQWLYPQKGEVLFDVLTINGDNAEVRYQAIKVGPLKRPRKLVLSQFPNLFTYKWVFMRGTSQERVLAQGTIDTDVATSTIDLKTCRYTSQTVSLPIIQRSALTGVGTTLGMTDFQMPFWCYGWPKVSVYMSATKTQTGVDGVALPATGQAAGMASGVGVQLINGKTQQPVKLGLQGKIALPEAQQTESATFSLPMKAQYYQTSTSTSAGKLSVTYAVTLNYD
[1]
  glycan array binding signal (z-score): 0.113
[2]
  glycan array binding signal (z-score): -0.17
[3]
  glycan array binding signal (z-score): -0.047
Gal(b1-4)GlcNAc6P
  glycan array binding signal (z-score): -0.29
Gal(b1-6)Gal
  glycan array binding signal (z-score): -0.194
Gal3S(b1-3)GalNAc
  glycan array binding signal (z-score): -0.283
Gal3S(b1-3)GlcNAc
  glycan array binding signal (z-score): 0.217
[4]
  glycan array binding signal (z-score): 0.129
Gal3S(b1-4)Glc
  glycan array binding signal (z-score): -0.263
Gal3S(b1-4)Glc6S
  glycan array binding signal (z-score): -0.183
Gal3S(b1-4)GlcNAc
  glycan array binding signal (z-score): 0.307
[5]
  glycan array binding signal (z-score): 0.584
[6]
  glycan array binding signal (z-score): 0.375
[7]
  glycan array binding signal (z-score): 0.094
Gal3S4S(b1-4)GlcNAc
  glycan array binding signal (z-score): -0.393
Gal3S6S(b1-4)GlcNAc
  glycan array binding signal (z-score): -0.282
Gal3S6S(b1-4)GlcNAc6S
  glycan array binding signal (z-score): -0.162
Gal4S(b1-4)GlcNAc
  glycan array binding signal (z-score): -0.395
Gal4S6S(b1-4)GlcNAc
  glycan array binding signal (z-score): -0.13
Gal6P(b1-4)GlcNAc
  glycan array binding signal (z-score): -0.534
Gal6S(b1-3)GlcNAc
  glycan array binding signal (z-score): 0.772
Gal6S(b1-3)GlcNAc6S
  glycan array binding signal (z-score): -0.319
Gal6S(b1-4)Glc
  glycan array binding signal (z-score): -0.01
Gal6S(b1-4)Glc6S
  glycan array binding signal (z-score): -0.03
Gal6S(b1-4)GlcNAc
  glycan array binding signal (z-score): 0.347
Gal6S(b1-4)GlcNAc6S
  glycan array binding signal (z-score): 0.074
GalNAc(a1-3)Gal
  glycan array binding signal (z-score): -0.016
GalNAc(a1-3)GalNAc
  glycan array binding signal (z-score): -0.392
[8]
  glycan array binding signal (z-score): -0.169
[9]
  glycan array binding signal (z-score): 0.178
GalNAc(b1-3)Gal
  glycan array binding signal (z-score): 0.008
[10]
  glycan array binding signal (z-score): 0.355
[11]
  glycan array binding signal (z-score): -0.24
[12]
  glycan array binding signal (z-score): 0.203
GalNAc(b1-3)GalNAc
  glycan array binding signal (z-score): -0.207
GalNAc(b1-3)GlcNAc
  glycan array binding signal (z-score): -0.223
GalNAc(b1-4)Gal(b1-4)Glc
  glycan array binding signal (z-score): 0.029
GalNAc(b1-4)GlcNAc
  glycan array binding signal (z-score): 1.38
